In the supplement of paper PMC10126150:
Sequences with one replicate were seen in a single cluster, so their values are uncertain.

Test system: ATP
Assay: switch fluorescence ratio, 500 uM ATP over buffer (Cy3 cluster intensity, sum of 5 cycles each) (fold (ratio)); higher = stronger signal-on switching upon ATP binding; sequences stand for … in TCGTCGGCAGCGTCAGATGTGTATAAGAGACAGTTTTTTTTTTTTTTTTTTTTTTTTT…TC
Settings: aptamer strand: ATP DNA aptamer (quencher-CACCTGGGGGAGTATTGCGGAGGAAGG + anchor), 100 nM annealed; ATP concentration: 500 uM; one replicate
Method in brief: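 Imaging in selection buffer was followed by imaging after 15 min with 500 uM ATP at 22 °C, for Cy3-labelled switching-strand clusters annealed to 100 nM quencher-labelled ATP aptamer on a modified Illumina MiSeq flow-cell. Five of these buffer/ATP cycles ran, separated by NaOH stripping and re-annealing. The fluorescence ratio per cluster is summed target-cycle over summed buffer-cycle Cy3 intensity, averaged per switch-domain sequence; clusters outside 100-1000 RFU were removed.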
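Note: ATP exposure 15 min at 22 °C before imaging.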

Sequence	switch fluorescence ratio
GCGGGTATAC	1.21
GGCATTTGCA	1.02
GCTGTACGTA	1.1
ACAGCTGACT	1.01
TGACAGGTA	0.98
TTGCTACGTT	0.996
CAGGCTATGC	0.941
GTACGGAGTG	1.03
CGGCCGGATT	0.979
TTGCGTCAAC	1
AATGTATCA	0.974
TTTGACTATA	1.07
CTCTACGGTG	1.08
CGCTTAGTCC	1.59
AGCAGTTG	1.03
TCAACAAGGG	1.28
TCATCGTTTG	1.01
CGTCTCAGCG	1.01
GATGCAGCCG	1.01
ACATCATTTT	1
ACCTTGGGGG	0.991
GCATGTAGGA	0.999
CAGTAGGG	0.999

Sequence	switch fluorescence ratio
CGTGGGTGTG	1.06
AATTGAGGGG	1.01
GATTGGCGCT	1.03
AGTAGGACGA	0.983
CGAGATACTT	1.2
ATGTGGACAT	0.979
TTCCTGTTCG	1.04
CTTCCCAAAG	1.31
TTCGGCAAAT	1.07
GGCGTTTAGC	1.07
CGGTCCGTGA	1.1
AGTGAAATTG	1.01
GGCAGCAGCA	1.07
CGATGAGTTA	0.976
GCTAGATAC	2.28
GAGCGCGCCC	0.969
AACCTGCTTG	0.997
CCTCTGGCGG	2.45
GGGAATCTGA	1.01
GGTTTTCGAT	1.05
ACAGGAATAG	1.19
ATTTTAACCG	0.998
ACAGCAGCTA	1.04

Sequence	switch fluorescence ratio
ATTTACTCTC	0.993
GCAGTAATAT	3.1
CGTAC	1.07
GAATTACGAG	1.02
ATTAGCTGG	0.989
GAGTGTACGA	1.03
AGGACTCTT	0.988
CATGCTATAG	1.06
GAGACTCAGC	0.956
TCGAGTTTAG	1.02
ATTAATAGGT	0.993
AAATAGCTGG	0.973
TGCATATTGG	0.984
GCGGTTTGTC	0.979
ACGAAGGGAT	0.996
TCACACATTT	1.01
GGATAATACG	1.05
AGGCCGATC	0.966
GAGGTGAAGT	0.969
AGCCCCGGTC	0.958
AGTCTGAAG	1.02
GATTATCGGG	0.974
GGAGGAACTG	1

Sequence	switch fluorescence ratio
TAACAAATAA	1.02
GTTTGATTGA	1.02
ATCGCGACTC	1.17
CGGGTGTTGT	0.969
GTTCTAGGAA	1.01
GGCGTAGAGT	0.936
AACAGCTCTT	1.05
AATTCTAGTT	0.979
GAGCTTCCGT	1.32
CACGGGAGCA	1.02
GATTATCGA	1.01
GGGCCTGAAC	1.16
TACAAAACGG	1.03
TGCGCTAGCC	1.02
TTGAGAGCA	1.03
TTAATGCCTT	1.12
CGGTTGGGAC	1.01
TTACTCGTGT	0.989
CGTTGAAGC	0.983
CGCGGAACGT	0.969
CCGGGACGGG	1.05
ATTGAAGGAA	0.94
GTCATCTCAT	0.999

Sequence	switch fluorescence ratio
TATCACAGAA	1.02
TATTGATCAA	0.99
TGAAGATCAT	0.978
TTAAGATACT	1.06
TGACTAGCTT	1.02
TCAGCGTCGG	0.948
GGGCGAGAGT	0.998
TGTTGAGTGA	0.996
TGTATGCGTG	0.965
ACGATTGGCG	1.04
TTTGAAGGGC	0.951
GAAACAACAG	1.05
TTGGCTCACC	0.991
GCGCATCTAA	1.06
CGAAACTTCT	0.998
TCACTAGGGA	1.02
TTCTGTACTG	1.01
TATGTGTTAG	1.01
GGGCAGTCTT	1.03
GGGCTGGTAA	1.04
GATATGTGAT	1.02
CTAACATAAA	1.02
TAAACTGGTG	1.15

Sequence	switch fluorescence ratio
TTCATCGTAC	1.21
CGATGGGTTA	0.989
TTGACGAAAA	1.73
ACTGGGGA	1.06
CTTGGTTTC	0.978
AGGAAAGTCA	1.01
GCTGCGTCCA	1.06
TAGTGTTTAA	0.993
AACAATTATC	1.03
ACCGGAAACA	1.09
ACCCAAGTTT	1.06
ATTAACTCCT	1.16
TGTGCAGAAG	0.963
GACGGTCGTG	0.997
CGGGAGGTCA	0.961
GTGTCTAGGT	1
TAAGTGACTG	1.06
AAGGATTGG	1.01
CTGTGTTATT	0.986
TCCTGGGGTT	0.986
GCGTGTGGG	0.998
ACAGTAAA	1.04
GATTTGCCTC	0.996

Sequence	switch fluorescence ratio
TTTTGTAAAA	0.964
ACCTGCGTTT	0.987
AAGTACTTAT	1.06
CATACAAGTC	1.04
GGCAACACAC	1.34
ACTGCATCGA	1.03
AAAGAAAACC	1.24
GTTAACGGTA	1.04
AAAATGAGAT	0.98
AGTCCTCGCG	1.07
GGGTTCCGGA	1.06
CGCGTAGCTT	0.993
TTGGTCTCG	1.04
TGCTTTTATA	0.991
GATAGTTGCT	0.987
GCGATGAACA	1.01
GCAAAAGCG	0.992
GGTGATATCT	0.984
TTAGTGAGAG	0.99
GCGGCCATTA	0.973
